According to article PMC4336329 (PLoS ONE, 2015):
The whole screen tested about 310,000 compounds, of which about 14,000 (4.5%) showed an effect of 50% or more. Effects have a minus sign here. This is one part of the list.

These compounds were tested against human ether-à-go-go-related gene (hERG) potassium channel (human, UniProt Q12809) (assay: primary screen, population patch clamp on CHO cells stably expressing hERG).
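Further: peak tail current of the secondary pulse compared with the same well before compound.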

Sequence of human ether-à-go-go-related gene (hERG) potassium channel (Q12809 whole entry, looked up): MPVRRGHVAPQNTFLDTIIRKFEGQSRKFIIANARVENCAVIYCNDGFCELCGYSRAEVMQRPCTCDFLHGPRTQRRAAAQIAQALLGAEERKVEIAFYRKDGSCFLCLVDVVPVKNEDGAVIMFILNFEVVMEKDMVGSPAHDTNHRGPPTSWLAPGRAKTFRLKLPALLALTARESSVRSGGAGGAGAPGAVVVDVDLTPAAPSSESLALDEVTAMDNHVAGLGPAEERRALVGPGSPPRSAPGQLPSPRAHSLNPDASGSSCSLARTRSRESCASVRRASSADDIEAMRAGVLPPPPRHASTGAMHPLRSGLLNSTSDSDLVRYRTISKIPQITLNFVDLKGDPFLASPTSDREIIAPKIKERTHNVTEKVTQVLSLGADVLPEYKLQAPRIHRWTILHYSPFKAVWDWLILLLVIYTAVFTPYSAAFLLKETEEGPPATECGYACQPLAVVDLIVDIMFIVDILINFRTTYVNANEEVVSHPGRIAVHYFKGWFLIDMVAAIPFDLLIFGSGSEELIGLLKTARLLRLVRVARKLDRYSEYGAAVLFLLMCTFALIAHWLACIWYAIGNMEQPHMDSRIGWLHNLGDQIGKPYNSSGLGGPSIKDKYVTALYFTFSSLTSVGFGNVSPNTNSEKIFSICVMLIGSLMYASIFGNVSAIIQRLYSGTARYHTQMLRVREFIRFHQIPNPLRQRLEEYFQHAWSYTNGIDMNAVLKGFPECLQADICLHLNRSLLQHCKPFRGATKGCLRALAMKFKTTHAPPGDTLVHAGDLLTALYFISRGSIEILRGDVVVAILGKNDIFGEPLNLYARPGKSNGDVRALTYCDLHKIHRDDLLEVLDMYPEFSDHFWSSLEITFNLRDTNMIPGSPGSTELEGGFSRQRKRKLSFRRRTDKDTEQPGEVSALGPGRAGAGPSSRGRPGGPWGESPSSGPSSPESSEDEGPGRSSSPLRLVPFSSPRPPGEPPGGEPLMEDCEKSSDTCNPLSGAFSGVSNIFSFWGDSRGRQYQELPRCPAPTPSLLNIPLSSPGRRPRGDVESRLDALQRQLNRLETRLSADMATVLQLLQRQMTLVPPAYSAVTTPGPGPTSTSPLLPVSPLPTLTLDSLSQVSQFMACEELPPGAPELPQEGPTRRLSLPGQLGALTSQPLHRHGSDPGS

Structure (SMILES) | hERG current change (%, negative = inhibition) at 10uM [%]
CCc1ccc(C(=O)C[n+]2cccc3cc(OC)ccc32)cc1.[Br-] | -11.5
O=C(Cn1cnc2sc3c(c2c1=O)CCCC3)NCC(=O)Nc1c(F)cc(F)cc1Br | 14.7
COc1ccc(CNc2cc(C)ccn2)c(O)c1 | 13.3
CC(=O)Nc1ccccc1C(=O)C(=O)Nc1cccc(C(=O)N2CCC3(CC2)OCCO3)c1 | 11.3
Cc1ccc(NC(=O)CCN2C(=O)C3CC=CCC3C2=O)cc1Cl (stereo not shown) | -10.9
C=CCN1C(=O)C2(OCCCO2)c2cccc(Cl)c21 | 5.1
COc1ccc(C(=O)N/N=C2\SCC(=O)N2Cc2ccc3c(c2)OCO3)c(OC)c1 | 3.31
O=C(NCCC(=O)N1CCC2(CC1)NCCc1[nH]cnc12)c1cccc(Br)c1 | 1.5
CCCC(=O)NC(=S)N1CCN(c2ccc([N+](=O)[O-])cc2)CC1 | -20.7
COc1ccc(C2(c3cccc(O)c3OC)CCN(C(C)=O)CC2)cc1O | 11
O=C(NCc1ccco1)c1ccc(Cn2c(=O)c3sccc3n(Cc3ccc(F)cc3)c2=O)cc1 | 13.6
Nc1ccc(-c2nc3cc([N+](=O)[O-])ccc3o2)cc1 | 14.4
CCOc1ccc(C(=O)COC(C)=O)cc1 | 6.75
CSc1ncc(Cl)c(C(=O)Nc2nnc(SC/C=C/c3ccccc3)s2)n1 | -30
COC(=O)NCCOC(=O)N(O)c1ccc(Br)cc1 | 14.7
COc1ccc(C2COc3cc(O)ccc3C2)c(OC)c1O (stereo not shown) | -13.1
O=C(Cc1c(F)cccc1Cl)Nc1ccon1 | -0.744
CC(=O)Nc1ccc(NC(=S)NC(=O)c2ccc([N+](=O)[O-])cc2)cc1 | 11.3
CCOC(=O)c1c(C)cc(=O)oc1C | 7.92
COc1ccc(CNC(=O)COC(=O)c2ccc(Br)cc2)cc1 | 17.3
CCOC(=O)C1CCCN(C(=O)C(=O)Nc2ccc3nc4n(c(=O)c3c2)CCCCC4)C1 (stereo not shown) | -1.21
CCOc1ccc(C2=Nc3ccccc3C(c3ccc(N4CCOCC4)cc3)=NN2)cc1 | -5.89

Structure (SMILES) | hERG current change (%, negative = inhibition) at 10uM [%]
Cc1onc(-c2ccccc2Cl)c1C(=O)Nc1cccc2nsnc12 | 8.65
C/C(=N\NC(=O)Cc1c(C)[nH][nH]c1=O)c1ccc(Cl)c(Cl)c1 | 11.9
O=c1c2c(nc3c(-c4cccc(Br)c4)c[nH]n13)CCCC2 | 6.12
O=C(N/N=C\C=C\c1ccc2c(c1)OCO2)c1ccc(F)cc1 | 1.32
COc1ccc(C(C)=O)cc1CSc1nc(C)cc(C)n1 | 5.31
Cc1ccc(C2/C(=C(\O)c3ccc4c(c3)OCCO4)C(=O)C(=O)N2Cc2cccnc2)cc1 (stereo not shown) | 9.66
CC1CCN(C(=O)COC(=O)c2cccc(NS(=O)(=O)c3ccccc3)c2)CC1 | -18.5
COC(=O)[C@]1(C)N[C@H](c2ccc(-c3ccc(F)cc3)cc2)[C@@H]2C(=O)N(C)C(=O)[C@@H]21.O=C(O)C(F)(F)F | -1.3
Cc1c(C)n(Cc2ccc(Cl)cc2)c2ccc(C(=O)NCCCN3CCOCC3)cc12 | -16.9
CC(C)c1ccc(NC(=O)[C@@H](NC(=O)N2CC(=O)Nc3ccccc32)C(C)C)cc1 | 6.86
CC(=O)Nc1ccc(S(=O)(=O)Nc2ccc(Cl)nn2)cc1 | 2.51
Cc1cccc(-c2nnc(SCC(=O)NC3CC3)n2C)c1 | 15.7
O=C(COc1ccccc1)NCCc1cn2ccsc2n1 | 4.18
CC(C)(C)OC(=O)N1CCC(c2c(C(=O)N3CCN(C(=O)c4ccco4)CC3)cnn2-c2cccc(Cl)c2)CC1 | -65.6
CC(OC(=O)CN1C(=O)COc2ccccc21)C(=O)NCc1ccc(F)cc1 (stereo not shown) | -5.95
O=C(NC1CCCCCC1)c1cc(S(=O)(=O)N2CCOCC2)ccc1N1CCCCC1 | -26.3
NC(=O)COc1cc2oc(=O)c3c(c2cc1Cl)CCCC3 | 12
O=C(/C=C/Nc1ccccc1F)c1ccc(Br)cc1 | 0.681
C=CCn1c(SCC(=O)N2CCN(CCO)CC2)nc2sc3c(c2c1=O)CCC3 | -20.9
Cc1ccc2c(c1)N(C(=O)CCC(=O)NCCCN1CCC(Cc3ccccc3)CC1)CCO2 | -77.1
CC(=NCCC(c1ccccc1)c1ccccc1)c1c(O)n(C)c(=O)n(C)c1=O | -16.7
